We go through 85 molecules from PubChem BioAssay (NCI).

The test concerns NCI-H322M lung. The test can be described thus: inhibition of tumour cell growth, NCI panel, 48 h.

Where “and” joins values, the source holds several entries; their conditions need not be identical. Identical values can stand only once.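 Test compounds were applied to cells in 96-well plates for 48 hours at 5 doses. GI50 is the concentration that inhibits growth by half. At the TGI there is no net growth.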

As for `O=S(=O)(O)c1ccc(N=Nc2ccc(N=Nc3ccc(/C=C/c4ccc(N=[N+]([O-])c5ccc(/C=C/c6ccc(N=Nc7ccc(N=Nc8ccc(S(=O)(=O)O)cc8)c8ccccc78)cc6S(=O)(=O)O)c(S(=O)(=O)O)c5)cc4S(=O)(=O)O)c(S(=O)(=O)O)c3)c3ccccc23)cc1`, the TGI was greater than 100 µM.

With `CCS(=O)(=O)c1ccc(OC)c(Nc2nccc(N(C)c3ccc4c(C)[nH]nc4c3)n2)c1`, the GI50 was 7.73 µM and the TGI is greater than 25 µM.

On to `CCc1ccc(CCC(=O)Nc2ncc(Cc3ccccc3)s2)o1`, for which the GI50 is 13.7 µM and the TGI is greater than 100 µM.

The molecule `O[C@]12CCCC[C@H]1CCC2` gave a TGI greater than 100 µM.

In the case of `COc1ccc(/C=C2\CNC/C(=C\c3ccc(OC)cc3)C2=O)cc1`, the TGI is greater than 100 µM.

`C=CCN1C(=O)/C(=C/c2cccs2)N=C1SC1OC(COC(=O)c2ccccc2)C(OC(=O)c2ccccc2)C1OC(=O)c1ccccc1` (stereo unspecified) displayed a TGI greater than 100 µM.

Molecule `C/C(=C1/N=C(c2cc([N+](=O)[O-])ccc2Cl)N(C2=CC=C(Cl)CC2)C1=O)c1cc2ccccc2oc1=O` registered a TGI greater than 100 µM.

In turn, `O=C(CN=C(CN(c1ccccc1)c1ccccc1)Oc1c([N+](=O)[O-])cc([N+](=O)[O-])cc1[N+](=O)[O-])N1CCNCC1` displayed a TGI greater than 100 µM.

In turn, `OCCCN(CCc1ccc(Cl)c(Cl)c1)CCN1CCCC1` registered a TGI greater than 100 µM.

As for `Cc1ccc(N2C(=O)CC(=O)N(NC(=O)C(C)Oc3ccccc3C)C2=S)cc1` (stereo unspecified), the TGI was greater than 100 µM.

In turn, `Cc1ccc(-c2c(C#N)c(S)n(NS(=O)(=O)c3ccccc3)c(=O)c2C#N)cc1` came in with a TGI greater than 100 µM.

`Cc1ccc2c(=O)[nH]sc2c1` had a TGI greater than 100 µM.

In the case of `Cc1nn2c(/C=C3/C(=O)Nc4ccccc43)c(-c3ccc(Cl)cc3)nc2s1`, the GI50 is 12.6 µM and the TGI was found to be 48.1 µM.

As to `CC(=O)NC1CCC(NC(=O)OC(C)(C)C)C(NC(=O)OC(C)(C)C)C1` (stereo unspecified), the TGI is greater than 100 µM.

`Cc1nc(NC(=S)Nc2ccc(F)cc2)sc1C(=O)NNC(=S)Nc1ccc(F)cc1`: the GI50 is 19 µM and the TGI was greater than 100 µM.

With `NNC(=O)CCCCCCCC(=O)O`, the TGI is greater than 100 µM.

Regarding `CSc1cc(Cl)c(C)cc1S(=O)(=O)NC(=O)NNc1ccccn1`, the TGI was greater than 100 µM.

For `CCOC(=O)c1cc2cc(CSc3ccccc3)ccc2oc1=O`, the TGI is greater than 100 µM.

`COc1cc(/C=C2\CCc3cc(OC)c(OC)cc3C2=O)cc(OC)c1` had a TGI greater than 100 µM.

`Cl.Fc1c[c-]c(-c2ccccn2)c(F)c1.[Pt].c1ccc([PH+](CC[PH+](c2ccccc2)c2ccccc2)c2ccccc2)cc1`: the GI50 is 0.0744 µM and the TGI was determined as 1.06 µM.

As to `CO/N=C1/NC(=O)/C(=C/c2ccc3ncccc3c2)S1`, the GI50 is 7.07 µM and the TGI was greater than 22.5 µM.

`O=C1C(Cl)=C(N2CCOCC2)C(=O)c2ccccc21`: the GI50 was 20.9 µM and the TGI worked out at 36.3 µM.

As for `Cc1ccc(C(=O)N/N=C/c2cccc(Oc3ccccc3)c2)cn1`, the GI50 was greater than 62.2 µM and the TGI was greater than 100 µM.

The molecule `CNC1NC(=O)c2ccccc2N1Cc1ccc(F)cc1` (stereo unspecified) gave a TGI greater than 100 µM.

Turning to `CC1(C)OC2CN(C(=O)OCc3ccccc3)C(CO)C2O1` (stereo unspecified), the TGI was greater than 100 µM.

The molecule `CC1(C)OC[C@@]2([C@@H]3CC[C@@H](C3)C2(C)C)N1O` had a TGI greater than 100 µM.

Take `Cn1c2ccc([N+](=O)[O-])cc2c(=O)c2c(O)cc(O)cc21`: the TGI was greater than 100 µM.

As to `C/C=C/OC1C(C2COC(C)(C)O2)OC2OC(C)(C)OC21` (stereo unspecified), the TGI was greater than 100 µM.

`O=C(NCCCCNCCCNC(=O)C(F)(F)F)C(F)(F)F` had a TGI greater than 100 µM.

`O=C1NC2(O)c3ccccc3C(=O)C2(O)N1c1ccccc1` (stereo unspecified) came in with a TGI greater than 100 µM.

For `CC(=O)O/C(=C(/C#N)C(=O)O)C1C(C(=O)O)C(c2ccccc2[N+](=O)[O-])C=C(c2ccco2)N1c1ccncc1` (stereo unspecified), the TGI stood at 23.8 µM.

In the case of `COc1cc(-c2cn(-c3ccc(Cl)cc3)c(=O)[nH]2)cc(OC)c1OC`, the GI50 was greater than 100 µM and the TGI was greater than 100 µM.

As for `Nc1ccccc1Sc1ccc(Cl)cc1`, the TGI was greater than 100 µM.

Consider `CSc1nc(-c2cc3c(c(SC)n2)CCC3)cc2c1CCC2`, for which the TGI was greater than 100 µM.

Turning to `CCc1oc2ccccc2c1C(=O)c1cc(Br)c(O)c(Br)c1`, the TGI amounted to 47.3 µM.

Take `Cc1nc(Nc2ccc(F)c(Cl)c2)sc1C(=O)O`: the GI50 was 2.85 µM and the TGI came out at 9.71 µM.

With `N#C[C@](CO)(NC(=O)OCc1ccccc1)C(F)F`, the TGI was greater than 100 µM.

The molecule `CC(=S)NNC(=O)c1ccncc1` registered a TGI greater than 100 µM.

Regarding `C=CC1(CBr)CCC(C(C)(C)Br)O1` (stereo unspecified), the TGI is 34.2 µM.

As for `C[C@@H]1CCN(C(=O)CC#N)C[C@@H]1N(C)c1ncnc2[nH]ccc12`, the GI50 is 75.4 µM and the TGI is greater than 100 µM.

Molecule `COC1CC(OS(=O)(=O)c2ccc(C)cc2)C(OS(=O)(=O)c2ccc(C)cc2)C(COS(=O)(=O)c2ccc(C)cc2)O1` (stereo unspecified) displayed a TGI greater than 100 µM.

The molecule `COC(=O)CC1(O)C(C=C(C)C)C(C(=O)OC)C(=O)C(C(=O)OC)C1C(=O)OC` (stereo unspecified) had a TGI greater than 100 µM.

With `c1cncc(CNc2ccccc2-c2nnc(Nc3ccc4c(c3)OCCO4)o2)c1`, the GI50 is 1.99 µM and the TGI was greater than 100 µM.

In the case of `CN(C)CCCn1c2c3ccccc3ccc2c2oc(=O)c3ccccc3c21`, the TGI is 17.8 µM.

As for `CC1(C)N=C(N)N=C(N)N1c1cccc(CCCCc2ccc(S(=O)(=O)F)cc2Cl)c1`, the GI50 was 4.34 µM and the TGI was greater than 41.6 µM.

On to `CC(=O)Oc1cccc2c1C(=O)C(Br)(Br)CCC2`, for which the TGI came out at 31.4 µM.

`CCOP(=O)(OCC)C(Cc1ccccc1)N=C(c1ccccc1)c1ccccc1` (stereo unspecified) displayed a TGI of 27.6 µM.

As for `COc1cc2cnc3c(c2cc1OC)Cc1cc2c(cc1-3)OCO2`, the GI50 was less than 0.0166 µM and the TGI came out at 26.1 µM.

For the molecule `N#CC(C#N)=CN1CCN(C(=O)c2ccccc2)C1=S`, the GI50 was 33.4 µM and the TGI amounted to 98.3 µM.

As for `O=C1NC(N/N=C/C(O)C(O)C(O)C(O)CO)=N/C1=C\c1cccs1` (stereo unspecified), the TGI was greater than 100 µM.

`FC(F)(F)C1(C(F)(F)F)OC(Cl)(Cl)C(Cl)(Cl)O1` yielded a TGI greater than 10 µM.

`Cc1ccnc2c1c(=O)c1ccccc1n2C` returned a TGI greater than 100 µM.

On to `CC1OC(OC2C(Oc3cc(O)c4c(=O)cc(-c5ccc(O)cc5)oc4c3)OC(CO)C(O)C2O)C(O)C(O)C1O` (stereo unspecified), for which the TGI was greater than 100 µM.

Regarding `CCOC(=O)C(Cc1c[nH]c2cc([N+](=O)[O-])ccc12)(NC(C)=O)C(=O)OCC`, the GI50 is greater than 1000 µM and the TGI was greater than 1000 µM.

In the case of `CNS(=O)(=O)NN(C)S(=O)(=O)c1ccc(Br)cc1`, the TGI was greater than 100 µM.

In turn, `C=C1CC(CNc2cc(Cl)nc(N)n2)C1` had a TGI greater than 100 µM.

As for `COC(=O)c1cc(C)ccc1CC(Cc1ccccc1C)C(=O)OC` (stereo unspecified), the TGI is greater than 100 µM.

The molecule `COc1ccc(NC(C)=O)c(C(=O)CCNC(C)=O)c1` yielded a TGI greater than 100 µM.

The molecule `CCC(/C=C/c1ccccc1)=N\NC(=S)N/N=C(/C=C/c1ccccc1)CC` came in with a TGI greater than 100 µM.

`COc1ccc(S(=O)Cc2cc(OC)ccc2OC)cc1` (stereo unspecified): the TGI was greater than 100 µM.

For `Cc1c(CN2CCC(Nc3ncnc4sc(CC(F)(F)F)cc34)CC2)ccc2c1cc(C#N)n2Cc1cn[nH]c1`, the GI50 was 5.96 µM and 12.2 µM; the TGI is 20.7 µM and > 38.8 µM.

Turning to `COc1cc(/C=C/C(=O)O)ccc1O`, the TGI is greater than 100 µM.

Turning to `CO/N=C1/C(n2[nH]c(=O)n(-c3ccccc3)c2=O)C2C=CC1n1c(=O)n(-c3ccccc3)c(=O)n12` (stereo unspecified), the TGI was greater than 100 µM.

As to `CCOC(=O)/C=C/[C@H](O[Si](c1ccccc1)(c1ccccc1)c1ccccc1)C(C)(C)C`, the TGI is greater than 31.6 µM.

For `COc1ccc(C2=C(c3cn(C)c4ccccc34)C(=O)NC2=O)cc1OC`, the GI50 is greater than 25 µM and the TGI is greater than 25 µM.

The molecule `c1ccc(-c2cc(-c3cc(-c4ccccc4)n[nH]3)[nH]n2)cc1` yielded a TGI greater than 100 µM.

`CCOC(=O)NC(N(C)C(C(C)C)P(=O)(OCC)OCC)(C(F)(F)F)C(F)(F)F` (stereo unspecified) came in with a TGI greater than 100 µM.

`O=C(COC(=O)c1ccccc1)c1ccc(Br)cc1`: the TGI stood at 27.5 µM.

Consider `C#CC[C@H](c1nc2cc(Cl)ccc2c(=O)n1Nc1ccccc1)N(CCCN)C(=O)c1cccc(Cl)c1F`, for which the GI50 is 0.328 µM and the TGI came to 12.8 µM.

For `C/C=C/[C@@H]1O[C@H](CC#C[Si](C)(C)C)[C@@]2(C=O)C(C)=CC[C@H](C(C)C)[C@@H]12`, the TGI was greater than 100 µM.

Regarding `Cc1ccc(NC2=C(Sc3ccc(Cl)cc3)C(=O)N(Cc3ccccc3)C2=O)cc1Cl`, the GI50 was 14 µM and the TGI is 48.2 µM.

For the molecule `Cc1cc(S(=O)(=O)NC#N)c(S/C(=N\Nc2ccc([N+](=O)[O-])cc2)c2ccccc2)cc1Cl`, the GI50 is 13.1 µM and the TGI is 29 µM.

For `COc1ccc(/C=N/n2c(C)n[nH]c2=O)cc1`, the TGI was greater than 100 µM.

Molecule `CNC=O` came in with a TGI greater than 10000 µM.

As for `CCc1nc2ccc(Cc3ccc(C(=O)NO)cc3)cc2c(=O)n1CCc1ccccc1`, the GI50 was 2.13 µM and the TGI came to 7.99 µM.

`CCC(C)/C=C(C)/C=C/C(=O)c1c(O)c(-c2ccc(O)cc2)c[nH]c1=O` (stereo unspecified): the GI50 is 3.26 µM and the TGI came to 16.3 µM.

On to `CCOC(=O)NC(=O)c1cn(CCCOC(=O)CCCCCCCCC(=O)OCCCn2cc(C(=O)NC(=O)OCC)c(=O)[nH]c2=O)c(=O)[nH]c1=O`, for which the TGI is 93.9 µM.

`CCCN(CCC)C(=O)Cc1c2n(c3ccccc13)Cc1ccccc1-2` came in with a TGI greater than 100 µM.

Take `CC(=O)/C=C/c1c[nH]c(=O)[nH]c1=O`: the TGI is 347 µM.

In the case of `O=[N+]([O-])c1cc(Br)cc2c1[nH]c1ccc(Br)cc12`, the GI50 is 6.32 µM and the TGI is greater than 100 µM.

Consider `O=C(c1ccc(NCN2C(=O)CCC2=O)cc1)c1ccc(NCN2C(=O)CCC2=O)cc1`, for which the TGI was greater than 100 µM.

Take `Cc1cc(N/N=C/c2nc(-c3ccccc3)oc2C)c2cc(Cl)ccc2n1`: the GI50 is 1.76 µM and the TGI stood at 3.66 µM.

`COc1ccc(/C=N/n2c(Cc3ccc(Cl)cc3)n[nH]c2=O)cc1` yielded a TGI greater than 100 µM.

For the molecule `O=C(N/N=C/c1ccc(O)cc1O)c1ccc(Nc2ccnc(C(F)(F)F)c2)cc1`, the GI50 is 0.821 µM and the TGI was greater than 43.9 µM.

Molecule `Cc1ccc(S(=O)(=O)OCC23CCC(C4CC42)C2CC23)cc1` (stereo unspecified) had a TGI greater than 100 µM.
